The RNAGym collection of RNA variant scans (doi:10.1093/nar/gkz1192)
The source gives no read counts; variants with many changes may rest on few reads.

B1: CPEB3 Ribozyme (parent)
chain: UAACAGGGGGCCACAGCAGAAGCGUUCACGUCGCAGCCCCUGUCAGAUUCUGGUGAAUCUGCGAAUUCUGCUGUAUAUCUC

Variants of: B1
Assay: self-cleavage, relative activity (ratio to wild type); higher = more cleavage; in vitro, sequencing
Summary of the method: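 Barcoded CPEB3 ribozyme mutants, produced by rounds of error-prone PCR, self-cleaved while being transcribed with T7 RNA polymerase for 5 hours at 37°C and during a subsequent 15 min DNase I step before EDTA was added. Sequencing of template-switched cDNA on Illumina gave cleaved and total reads, and DNA sequencing assigned barcodes to variants. Each variant's relative activity is its cleaved/total read fraction divided by the unmutated ribozyme's fraction, averaged across three batches. A variant needed a minimum of 5 reads.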
Variant A28U U31A U67C has a self-cleavage of 0.15.
C27U U43C G70A gave a self-cleavage of 0.45.
With A28G A47G U54A A57U U60A G63A U69A the self-cleavage was 0.08.
In the case of A28G U41A A45U A56U U69C, the self-cleavage is reported as 0.13.
Variant A28U A57G U60C has a self-cleavage of 0.16.
A28G U69A U78C showed a self-cleavage of 0.23.
Variant A28G G36C U67C has a self-cleavage of 0.06.
In the case of A28U U31C U67A, the self-cleavage is reported as 0.35.
With C27A A57G A64G U76A the self-cleavage was 0.08.
A28G U69G U72G A75G U78C showed a self-cleavage of 0.24.
With A28C U41C A57U the self-cleavage was 0.23.
C27U U58C C68U showed a self-cleavage of 0.09.
Work on C29U U72A U80C yielded a self-cleavage of 0.82.
With A28G A35G U41A the self-cleavage was 0.15.
In the case of A28G U43A U51C A64G U69C, the self-cleavage is reported as 0.21.
In the case of C27U A35G U66C, the self-cleavage is reported as 0.23.
In the case of A28U U41G U51A U72C, the self-cleavage is reported as 0.12.
Variant C29U U41C C44G has a self-cleavage of 0.26.
Variant A28G U43C G46U U78A has a self-cleavage of 0.16.
A28G A35G U66C U74A gave a self-cleavage of 0.51.
C29U G33A U48C A57G U80C showed a self-cleavage of 0.1.
A28U C29G U69C gave a self-cleavage of 0.14.
With G30A U43C A45U A47G U69C the self-cleavage was 0.11.
For A28U U54A A64G, the self-cleavage was 0.86.
C27U U54A U78C showed a self-cleavage of 0.16.
With U26G U72A A77G the self-cleavage was 0.14.
In the case of C27G G42A U51C G61A, the self-cleavage is reported as 0.19.
In the case of A28G U31A U49C U54C U60A, the self-cleavage is reported as 0.07.
Variant A28U U51C U72A has a self-cleavage of 0.5.
A28G A57C U76C showed a self-cleavage of 0.11.
With A28G U54C U67C U76A A77U the self-cleavage was 0.05.
A28G C32A U69A showed a self-cleavage of 0.39.
Work on A28U C29G A47G U51C U58C U76C yielded a self-cleavage of 0.09.
Variant A28G A35G A56U has a self-cleavage of 0.68.
For U26G A35G U69C, the self-cleavage was 0.16.
Work on C27U A35G U66C U80C yielded a self-cleavage of 0.32.
For U26G A56G U72A, the self-cleavage was 0.44.
Work on A28U C32U U41C yielded a self-cleavage of 0.13.
In the case of A28G A45G U48A, the self-cleavage is reported as 0.14.
For A28G U51A U72A, the self-cleavage was 0.5.
A28U A45U U58C A65G gave a self-cleavage of 0.09.
With A28G A45G U72C the self-cleavage was 0.54.
G30C A35G U43C U54A showed a self-cleavage of 0.15.
For A28G C37A U69G, the self-cleavage was 0.09.
C27U A64G U74C A77U gave a self-cleavage of 0.31.
A28G U58C U69C U78C showed a self-cleavage of 0.13.
With A28G U43G U78C the self-cleavage was 0.15.
A28G U48C A56U A65U U72C showed a self-cleavage of 0.12.
For A28C U43A A45G A47U U74C A77U, the self-cleavage was 0.07.
Variant C29U G33A C40U U43C A47G U48A A75G has a self-cleavage of 0.03.
Work on A28G G42A U58A A75U yielded a self-cleavage of 0.34.
Work on A28U U41A A45U G61A U80C yielded a self-cleavage of 0.18.
Work on A28U U67A C79A yielded a self-cleavage of 0.39.
A28U A35U A65G gave a self-cleavage of 0.4.
For C29A G52C U54A C71A G73C, the self-cleavage was 0.11.
A28G C38U A47U U49G U80C showed a self-cleavage of 0.09.
Variant C29A A35G A65G has a self-cleavage of 0.38.
Variant G30U C32G A56G U60C U80C has a self-cleavage of 0.15.
A28C C40U G55A A56G A65G gave a self-cleavage of 0.05.
Work on A28G A45U U60C yielded a self-cleavage of 0.31.
A28G U41G A77U gave a self-cleavage of 0.21.
With A28C U48A U80C the self-cleavage was 0.15.
For A28U U41C A57G U72A, the self-cleavage was 0.29.
C29A U51A G70A showed a self-cleavage of 0.12.
With C29U A35U U43C G52U the self-cleavage was 0.18.
With A28C U41A U58C the self-cleavage was 0.12.
With C29U C59A G73A the self-cleavage was 0.29.
In the case of C27A U43C A56U, the self-cleavage is reported as 0.1.
For C27A A28G U60C U66C U69C, the self-cleavage was 0.16.
A28U U43C U60A showed a self-cleavage of 0.08.
In the case of G30A U51A U74G A75U, the self-cleavage is reported as 0.25.
Variant A28G U31C G53C A65G has a self-cleavage of 0.14.
C27U A28G A56U A64G U74C showed a self-cleavage of 0.12.
Variant A28G U60A U69C has a self-cleavage of 0.25.
Variant C29U U54C A56G U60A G63U A64G U80A has a self-cleavage of 0.15.
With A28G G30A C32U G52U A56U the self-cleavage was 0.16.
With C29A C34U G42A U51G the self-cleavage was 0.06.
Variant A28U U41A U69C has a self-cleavage of 0.15.
A28G U48C A56U U80A gave a self-cleavage of 0.16.
A28U A35G U78C gave a self-cleavage of 1.26.
Variant A28G U49C U69G U72A has a self-cleavage of 0.12.
Work on A28G U54C C71G yielded a self-cleavage of 0.08.
Variant A28G U41C U72C has a self-cleavage of 0.74.
